Data: patent publication US9550741B2, “Benzoisothiazole compounds and methods of treating schizophrenia” (SHANGHAI INSTITUTE OF PHARMACEUTICAL INDUSTRY, priority 2013, dated 2017)

Columns and labels:
[1] = target: 5-HT1A receptor (Homo sapiens (Human), UniProt P08908); test: 5-HT1A receptor binding test; conditions: [3H]8-OH-DPAT, HEK-293 cells expressing 5-HT1A receptors
Protocol: Cells: HEK-293 cells stably expressing 5-HT1A receptors as obtained by gene recombination are cultured for 3-5 days in cell culture medium DMEM supplemented with 10% serum.
Competitive inhibition ratio of each compound at the concentration of 10 μmol/L to inhibit the binding of [^3H]8-OH-DPAT to 5-HT1A receptor is determined for primary screening.
The components are mixed to homogeneity, and then the above tubes are transferred to water bath at 30° C. (1 h), removed into ice bath immediately, and suction filtered on Harvest (with ice cold Tris eluate for 5 times).

[2] = target: D2 receptor (Homo sapiens (Human), UniProt P14416); test: Dopamine D2 receptor binding test; conditions: [3H]Spiperone, D2 receptor expressed in HEK293 cells; read-out: Affinity of the compound to D2 receptor, Ki value
From the text: This experiment utilizes the plasmid vector containing the gene of D2 receptor protein for transfecting HEK293 cells by calcium phosphate transfection method.
(§1) Beckman LS-6500 multifunction liquid scintillation counter.

[3] = target: human recombinant D3 receptor (Homo sapiens (Human), UniProt P35462); test: Dopamine D3 receptor binding test; conditions: [3H]methyl-spiperone 0.3 nM, human recombinant D3 receptor in CHO cells; read-out: Affinity of the compound to D3 receptor, Ki value
Protocol: With [^3H]methyl-spiperone (0.3 nM) as the ligand and (+)-butaclamol (10 LM) for determining non-specific binding, binding tests are carried out on human recombinant D3 receptor (expressed in CHO cells).

[4] = target: 5-HT2A receptor (Homo sapiens (Human), UniProt P28223); test: 5-HT2A receptor binding test
From the text: as §1

[5] = read-out: Affinity of the compound to 5-HT1A receptor, Ki value
[6] = read-out: Affinity of the compound to 5-HT2A receptor, Ki value, [3H]-Ketanserin, 5-HT2A receptor expressed in HEK293 cells
[7] = read-out: Affinity of the compound to 5-HT2A receptor, Ki value
[8] = [3H]-Ketanserin, 5-HT2A receptor expressed in HEK293 cells

Chain of UniProt P28223 (P28223 whole entry): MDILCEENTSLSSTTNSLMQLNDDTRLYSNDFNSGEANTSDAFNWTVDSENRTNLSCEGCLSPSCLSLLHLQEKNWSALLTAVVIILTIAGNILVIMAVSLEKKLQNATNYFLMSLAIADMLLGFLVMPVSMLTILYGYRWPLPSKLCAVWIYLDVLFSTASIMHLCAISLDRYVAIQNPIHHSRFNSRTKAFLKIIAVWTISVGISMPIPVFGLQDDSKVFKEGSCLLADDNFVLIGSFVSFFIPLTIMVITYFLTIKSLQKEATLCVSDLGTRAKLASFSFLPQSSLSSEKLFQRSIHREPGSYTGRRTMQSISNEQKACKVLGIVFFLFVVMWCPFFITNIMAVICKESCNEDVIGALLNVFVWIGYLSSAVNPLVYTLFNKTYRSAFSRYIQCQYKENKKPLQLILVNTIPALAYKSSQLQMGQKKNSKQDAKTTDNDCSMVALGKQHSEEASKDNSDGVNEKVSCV
Chain of UniProt P35462 (P35462 whole entry): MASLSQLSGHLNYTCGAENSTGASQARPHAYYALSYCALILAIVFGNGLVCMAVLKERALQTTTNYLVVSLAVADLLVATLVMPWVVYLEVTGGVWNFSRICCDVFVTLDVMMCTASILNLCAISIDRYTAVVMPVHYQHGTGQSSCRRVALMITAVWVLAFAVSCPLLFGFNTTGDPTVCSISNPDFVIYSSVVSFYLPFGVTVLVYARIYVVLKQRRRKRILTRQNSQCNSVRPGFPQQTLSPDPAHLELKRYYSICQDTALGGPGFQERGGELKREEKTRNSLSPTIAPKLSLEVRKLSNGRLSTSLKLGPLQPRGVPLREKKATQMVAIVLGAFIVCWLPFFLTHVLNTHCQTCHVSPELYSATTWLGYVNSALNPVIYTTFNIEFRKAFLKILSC
Chain of UniProt P14416 (P14416 whole entry): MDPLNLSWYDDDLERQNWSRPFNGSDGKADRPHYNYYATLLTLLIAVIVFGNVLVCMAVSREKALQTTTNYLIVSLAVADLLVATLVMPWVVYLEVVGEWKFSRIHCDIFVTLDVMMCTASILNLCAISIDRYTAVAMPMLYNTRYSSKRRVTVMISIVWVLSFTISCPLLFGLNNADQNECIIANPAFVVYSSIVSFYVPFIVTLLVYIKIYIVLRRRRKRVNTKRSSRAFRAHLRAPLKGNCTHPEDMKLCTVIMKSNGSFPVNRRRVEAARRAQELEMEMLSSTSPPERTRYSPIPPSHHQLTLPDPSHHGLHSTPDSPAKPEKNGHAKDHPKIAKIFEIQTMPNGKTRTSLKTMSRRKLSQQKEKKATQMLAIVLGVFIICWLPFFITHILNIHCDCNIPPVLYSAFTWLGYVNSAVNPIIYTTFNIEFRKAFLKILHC
Chain of UniProt P08908 (P08908 whole entry): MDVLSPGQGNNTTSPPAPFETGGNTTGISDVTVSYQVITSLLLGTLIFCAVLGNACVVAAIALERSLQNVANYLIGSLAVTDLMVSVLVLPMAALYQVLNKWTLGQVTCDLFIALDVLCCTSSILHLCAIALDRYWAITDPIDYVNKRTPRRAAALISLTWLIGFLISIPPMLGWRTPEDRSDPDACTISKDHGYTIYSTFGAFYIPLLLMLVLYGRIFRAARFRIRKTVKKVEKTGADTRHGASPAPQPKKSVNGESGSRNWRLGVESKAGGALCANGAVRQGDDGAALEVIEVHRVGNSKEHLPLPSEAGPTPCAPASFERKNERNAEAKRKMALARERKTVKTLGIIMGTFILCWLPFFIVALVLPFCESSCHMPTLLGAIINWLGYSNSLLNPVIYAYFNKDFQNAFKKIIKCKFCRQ

Ki [1] [nM] | Ki [4, 8] [nM] | Compound | Ki [1, 5] [nM] | Ki [2] [nM] | Ki [3] [nM] | Ki [4, 6] [nM] | Ki [4, 7] [nM]
– | – | O=C(N[C@H]1CC[C@H](CCN2CCN(c3nsc4ccccc34)CC2)CC1)c1sccc1Br [Compound I-12, trans-N-(4-(2-(4-(benzo[d]isothiazol-3-yl)piperazin-1-yl)ethyl)cyclohexyl)-3-bromothienyl-2-carboxamide] | 3.62 | 3.15 | 1.02 | 2.89 | –
– | – | O=C(N[C@H]1CC[C@@H](CCN2CCN(c3nsc4ccccc34)CC2)CC1)c1ccco1 [Compound I-19, cis-N-(4-(2-(4-(benzo[d]isothiazol-3-yl)piperazin-1-yl)ethyl)cyclohexyl)furyl-2-carboxamide] | 1.37 | 0.82 | 0.25 | 0.98 | –
– | – | O=C(N[C@H]1CC[C@H](CCN2CCN(c3nsc4ccccc34)CC2)CC1)c1cccs1 [Compound I-2, trans-N-(4-(2-(4-(benzo[d]isothiazol-3-yl)piperazin-1-yl)ethyl)cyclohexyl)thienyl-2-carboxamide] | 1.1 | 0.19 | 0.056 | 0.15 | –
– | – | CC(=O)c1ccc(C(=O)N[C@H]2CC[C@H](CCN3CCN(c4nsc5ccccc45)CC3)CC2)o1 [Compound I-10, trans 5-acetyl-N-(4-(2-(4-(benzo[d]isothiazol-3-yl)piperazin-1-yl)ethyl)cyclohexyl)furyl-2-carboxamide] | 5.19 | 5.04 | 6.98 | – | 3.79
– | – | O=C(Nc1ccccc1)N[C@H]1CC[C@@H](CCN2CCN(c3nsc4ccccc34)CC2)CC1 [IV-12, cis-1-(4-(2-(4-(benzo[d]isothiazol-3-yl)piperazin-1-yl)ethyl)cyclohexyl)-3-phenylurea] | 5.14 | 1.86 | 2.05 | 2.4 | –
1.99 | 5.2 | N#Cc1ccc2sc(S(=O)(=O)N[C@H]3CC[C@H](CCN4CCN(c5nsc6ccccc56)CC4)CC3)cc2c1 [II-12, trans-N-(4-(2-(4-(benzo[d]isothiazol-3-yl)piperazin-1-yl)ethyl)cyclohexyl)-5-cyanobenzo[b]thienyl-2-sulfamide] | – | 8.82 | 1.99 | – | –
– | – | O=C(N[C@H]1CC[C@H](CCN2CCN(c3nsc4ccccc34)CC2)CC1)OCc1cccs1 [III-13, trans-(4-(2-(4-(benzo[d]isothiazol-3-yl)piperazin-1-yl)ethyl)cyclohexyl)thienyl-2-methylcarbamate] | 1.76 | 2.54 | 0.95 | 0.6 | –
– | – | O=C(N[C@H]1CC[C@H](CCN2CCN(c3nsc4ccccc34)CC2)CC1)c1cc2ccccc2o1 [Compound I-5, trans-N-(4-(2-(4-(benzo[d]isothiazol-3-yl)piperazin-1-yl)ethyl)cyclohexyl)benzofuryl-2-carboxamide] | 8.96 | 0.32 | 0.078 | 0.86 | –
– | – | O=C(Nc1cccc([N+](=O)[O-])c1)N[C@H]1CC[C@H](CCN2CCN(c3nsc4ccccc34)CC2)CC1 [IV-10, trans-1-(4-(2-(4-(benzo[d]isothiazol-3-yl)piperazin-1-yl)ethyl)cyclohexyl)-3-(3-nitrophenyl)urea] | 9.07 | 3.64 | 4.15 | – | 5.01
– | – | Cc1ccc(S(=O)(=O)N[C@H]2CC[C@H](CCN3CCN(c4nsc5ccccc45)CC3)CC2)o1 [II-9, trans-N-(4-(2-(4-(benzo[d]isothiazol-3-yl)piperazin-1-yl)ethyl)cyclohexyl)-5-methylfuryl-2-sulfamide] | 2.1 | 7.38 | 1.73 | – | 2.01
6.08 | 2.1 | N#Cc1ccc(S(=O)(=O)N[C@H]2CC[C@H](CCN3CCN(c4nsc5ccccc45)CC3)CC2)o1 [II-7, trans-N-(4-(2-(4-(benzo[d]isothiazol-3-yl)piperazin-1-yl)ethyl)cyclohexyl)-5-cyanofuryl-2-sulfamide] | – | 8.54 | 8.19 | – | –
– | – | O=S(=O)(N[C@H]1CC[C@H](CCN2CCN(c3nsc4ccccc34)CC2)CC1)c1cc2ccccc2s1 [II-4, trans-N-(4-(2-(4-(benzo[d]isothiazol-3-yl)piperazin-1-yl)ethyl)cyclohexyl)benzo[b]thienyl-2-sulfamide] | 5.79 | 1.69 | 1.03 | 0.88 | –
– | – | O=C(Cc1cccs1)N[C@H]1CC[C@H](CCN2CCN(c3nsc4ccccc34)CC2)CC1 [Compound I-17, trans-N-(4-(2-(4-(benzo[d]isothiazol-3-yl)piperazin-1-yl)ethyl)cyclohexyl)-2-(thien-2-yl)acetamide] | 0.98 | 0.27 | 0.1 | 1.02 | –
– | – | O=C(Cc1coc2ccccc12)N[C@H]1CC[C@H](CCN2CCN(c3nsc4ccccc34)CC2)CC1 [Compound I-18, trans-N-(4-(2-(4-(benzo[d]isothiazol-3-yl)piperazin-1-yl)ethyl)cyclohexyl)-2-(benzofuran-3-yl)acetamide] | 7.55 | 0.23 | 0.18 | 1.87 | –

Like-named read-outs stand apart in the source and are kept apart here.
